# Source: the supplement of paper PMC11417369
# ± gives the standard deviation of the averaged measurements. The list shows a part of the results.
# Test system: PfAP2-G AP2 domain (GST-tagged)
# Assay: gcPBM binding intensity (ln(normalized median fluorescence intensity)); higher = stronger DNA binding
# Method in brief: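 GST-tagged P. falciparum DNA-binding domains produced in E. coli were incubated for 1 h on an Agilent 4 × 180k array of primer-extended double-stranded 36-bp intergenic genomic probes with negative controls. Binding intensity is the highest Masliner-normalised natural-log median intensity across replicate spots of either probe orientation, with bound protein detected by Alexa488 anti-GST antibody at 488 nm.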
row,Sequence,gcPBM binding intensity (ln)
1,TAAATTAAAAAACACACACACAAAAAAAAAAAAAAA [CACACA_site2263],9.77 ± 0.67
2,AATAAATGGAATGTCACACATATATATATATATATA [CACACA_site4869],10.1 ± 0.35
3,ATTATTTAAAAAAAATGTACATAATAAATATGAACG [XGTACX_site4010],11.4 ± 0.77
4,TGAAGGATATATTCCGTGCACATATAAATATATACA,10.2 ± 0.3
5,AACATGTTAACTAAATGTACACACCTATGTTGATGT [XGTACX_site3777],11.1 ± 0.68
6,CAGGTGCACTATATTACACACGCTTCTTTTTTTTTA [CACACA_site2069],10.6 ± 0.6
7,TTGATATTATTGTATAAACATAATAGAGATAAAGAG [TGCATGCA_negctrl_site455],10.3 ± 0.3
8,TATATACATATATACACACACATATATATATATATA [CACACA_site2805],10 ± 0.29
9,GGAAAACACAAAAACTGTACATTTATTCAACATATA [XGTACX_site5831],11 ± 0.58
10,TAAGAACTATTCAGTAGTACCTATATGGATTACTAA [XGTACX_site4278],10.8 ± 0.5
11,ATTGATATTGTATAATGTACAGGAAAAAAAAAAAAA [XGTACX_site526],10.8 ± 0.83
12,TGAAAGAATGTTAATAGTACACACAATTATTATATA [XGTACX_site7936],11.2 ± 0.73
13,TTCTTTATTTTTTCTACACACATTATGTATTCAAAG [CACACA_site3527],10.2 ± 0.049
14,TGAAAGAACCTGATTACACACATAAGTTATAAATAT [CACACA_site6165],9.975 ± 0.049
15,AAAATTTAAATAGGAAGTACGTTCACTAAGAAAATA [XGTACX_site6546],11 ± 0.57
16,AATCTCAGAATATACTGTACTTTAAGAAAAAAAAAA [XGTACX_site110],11.4 ± 0.71
17,AATATATATTTGTGTACACATTATATATATATATAT [CACACA_site6103],11.9 ± 1.1
18,AAAATGTGCATATTTGCACACTTCAATATATATATA [CACACA_site1791],10.1 ± 0.41
19,CATAAATCAGCCATAACACACATACCTATATACATA [CACACA_site6324],10.03 ± 0.092

row,Sequence,gcPBM binding intensity (ln)
1,AAATATTTTGCATACACATGCAAATATTTTTTACAT [TGCATGCA_site554],9.8 ± 0.11
2,AATATAAAAAGGCACACACACAAAAAAAAAAAAAAA [CACACA_site896],9.99 ± 0.45
3,AAATAAAGATATATATATATATATATATATAATTTT [CACACA_negctrl_site30],9.495 ± 0.007
4,ATAATAACTGATAAATGTACATATAAATTTTATGAT [XGTACX_site195],11.1 ± 0.66
5,ATAATTTAAAAACATTGTACATTAATATATATGTAT [XGTACX_site8970],10.8 ± 0.59
6,AGGATATGCGGACACACACACATATATATATATATA [CACACA_site5247],11.3 ± 1
7,TTTATATTTCTTCATCGTACACATAAAAAAAAAAAA [XGTACX_site3244],11.2 ± 0.95
8,ATACTCACGAAACACACACACAATATATATATATAT [CACACA_site4136],10.1 ± 0.25
9,TTTTATATTTTAAGAGTGCATTTTATATCTTTTTCT,9.97 ± 0.014
10,GAAAATATTAAATGAAGTACAATATTTATGTTACTT [XGTACX_site8737],11.2 ± 0.75
11,AAGAATTATATTAATAGTACATATATATTAATTTAT [XGTACX_site5713],10.8 ± 0.57
12,TTATTTATGAAGTATACACACAATATAGATTTATAT [CACACA_site6703],9.93 ± 0.057
13,TTTAAAATTATAAGGATTAAAAAAAAAAAAAATAAA [CACACA_negctrl_site114],9.72 ± 0.13
14,AAGACATTTTTTTGTTGTACGTCTTCATTTATTGTA [XGTACX_site2890],11.5 ± 0.87
15,TTTTGTTATTATAAATAGTAACATTTGTGAATATAT [TGCATGCA_negctrl_site132],9.9 ± 0.26
16,ATAAATTTTTAAACAGCACACATAAATATAATATAT [CACACA_site8691],10.06 ± 0.064
17,ATAATGAAAACAAGCACACATACATAAAATAAAATA [CACACA_site3257],10.1 ± 0.11
18,ATGGAAGGATAATAAAAACCTTTACCTTTCTGTTTA [GTGCAC_negctrl_site380],9.71 ± 0.17
19,TCTACAATTTTAATTACACACTATAAAAAAGAAAGA [CACACA_site5624],9.965 ± 0.078

row,Sequence,gcPBM binding intensity (ln)
1,TAGCTTATAAGATATGCACACACAACACTTACAAAA [CACACA_site8174],10.2 ± 0.22
2,AATATTACAATTTGGTGTACAGGTGCACATGCCTCA [XGTACX_site1730],11.5 ± 0.93
3,ATATTATTTTAAAGTACACACATATATTAAGATATA [CACACA_site5306],11.4 ± 1
4,ATAGGTTCCCAAAATGCACACCAATGAAATTATTTA [CACACA_site8081],10.6 ± 0.45
5,CAAGCTTTTTCCTTTACACACATTAGTTATTTATAT [CACACA_site6781],10 ± 0.042
6,ATGATTTCACAAGACACACACATACAAATTTATATA [CACACA_site3909],10.2 ± 0.21
7,TATTTTATATTTTATGCACACTTATAAGAAATATGT [CACACA_site5647],10.3 ± 0.19
8,TTAATATATTATCTGGTGCATAAACACGTTATACCT,10.11 ± 0.085
9,CAGTATTACATGAGGACACACACAAAAAAAATATAT [CACACA_site8156],11.3 ± 0.86
10,ATATATATATATATATGTACGTATTCATAAACAACA [XGTACX_site4282],11.4 ± 0.89
11,TATTAATATGGTAATACACACTAATATACTTTTGTT [CACACA_site6860],10.04 ± 0.021
12,TAAGTATATTTTATATGTACTTATATATTTAATTTT [XGTACX_site4615],11.3 ± 0.79
13,CTGTAAAAAATATAAACACACATAGAGATATATAAA [CACACA_site6292],9.885 ± 0.049
14,TTTAATGTTACTCCTTGTACACAAAATAGTGTTATA [XGTACX_site8416],11.3 ± 0.9
15,TATTATATATATATATGTACATATATATGCTAAAAA [XGTACX_site5297],11.1 ± 0.6
16,GATGTTGCAAAATTCTGTACATATAAATGTATACAT [XGTACX_site5009],11 ± 0.42
17,ATTCTATTATAATACACACCCAAATATTAAAAAGAT [CACACA_site2960],10.25 ± 0.085
18,CCACATGATATGATTACACACATATATATATTTACA [CACACA_site164],9.98 ± 0.057
19,ATACATATGTATATTTGTACATATTAGACAATCTTA [XGTACX_site6706],10.6 ± 0.39
